Measurements as given in the supplement of paper PMC11417369.
± gives the standard deviation of the averaged measurements. The list shows a part of the results.

Each sequence was assayed on PfAP2-LT AP2 domain (GST-tagged) (assay: gcPBM binding intensity (ln(normalized median fluorescence intensity)); higher = stronger DNA binding).
Method in brief: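 GST-tagged P. falciparum DNA-binding domains, expressed in E. coli (about 25 μg on average), were applied for 1 h to an Agilent 4 × 180k array of primer-extended double-stranded 36-bp intergenic genomic probes plus negative controls. The binding buffer was 1× PBS with 1% milk, 0.2 mg/ml BSA, 0.5% salmon testes DNA and 0.03% Triton X-100. Bound protein was detected with Alexa488 anti-GST antibody and scanned at 488 nm. Binding intensity is the highest Masliner-normalised natural-log median intensity across replicate spots of either probe orientation.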

Row | Sequence | gcPBM binding intensity (ln)
1 | GCTCAATGTTTTACATGTACATATATATATATATAT [XGTACX_site8210] | 9.495 ± 0.021
2 | TGGTGATCAAAATATACATGCATATGTTCTGTTATT [TGCATGCA_site614] | 8.94 ± 0.51
3 | CAACATTTGATAAACACACAGAAGTATAAATATATA [CACACA_site2365] | 9 ± 0.45
4 | ATCGTTATATAAAAATGTACTTATAAATTGTATACA [XGTACX_site6664] | 8.68 ± 0.44
5 | AAAGGAAAAATCCAAGTGCATTATTATTTTCACAAA [GTGCAC_site9995] | 8.51 ± 0.54
6 | TAGTATAATATGAACACACACACACGCACAAAAAAA [CACACA_site7035] | 9.94 ± 0.27
7 | TGTAAGCACATACAAACACACAACATTATTTTTATC [CACACA_site2186] | 9.16 ± 0.48
8 | GAAAAAAATGAAATTAGTACTTATCTTAAATTTTTA [XGTACX_site1018] | 8.24 ± 0.45
9 | AAAAATATATAATAAAGTACACATAAATGAATAAAT [XGTACX_site329] | 9.07 ± 0.48
10 | TTTTTTTTTTTTTGATGTACAATTAATATTATAAAA [XGTACX_site6969] | 8.16 ± 0.4
11 | AGTAATAAATAATTTACACACATATTATATCATCAC [CACACA_site1890] | 9.1 ± 0.33
12 | CATTTTAAAGAAAATACACACAAAAATAGATATATA [CACACA_site6773] | 8.87 ± 0.42
13 | ATTTCTTTTTTATTGAGTACATATGACCATGTTCAA [XGTACX_site5365] | 8.78 ± 0.49
14 | AAGAAATAAAGCAAAACATGCACTCGAAAATGTTTT [TGCATGCA_site1014] | 8.91 ± 0.38
15 | TATTGTTAAAATGAATAATTAAAACAGTAATGAATA [XGTACX_negctrl_site170] | 8.52 ± 0.53
16 | TTAGCAACTATTACTACACACATTTTTATATAACTT [CACACA_site6762] | 8.97 ± 0.47
17 | ATGTCTAATTTTGATGCACACTTTTGTGCAATTAAA [CACACA_site5589] | 8.72 ± 0.41
18 | TATATATGTTTTTATGTACACACTTTTAACCTAAGA [CACACA_site1149] | 8.79 ± 0.42
19 | CGCATGCAATGTTAATGTACATATATATATATATGT [XGTACX_site3316] | 9.12 ± 0.22
20 | AGGTGCAAAAATAAAACATGCAAAAATAAAAATGAA [TGCATGCA_site502] | 9.12 ± 0.6
21 | AATAATTAAATAAGAGTGCATGAAACAGGAAATTTC | 9 ± 0.4
22 | AATAGTCGTGTGCATACACACCTTAACTATAATATA [CACACA_site6636] | 9.14 ± 0.28
23 | TAATAAAAAATATATACACACAAATAAATAAATAAA [CACACA_site4037] | 8.96 ± 0.4

Row | Sequence | gcPBM binding intensity (ln)
24 | ATTCAGTTATATAATACACACATATATTGACATTAT [CACACA_site2723] | 9.04 ± 0.35
25 | ACAGTATCTGGTAGCTGTACGAGTCGTAGAGAGTAG [XGTACX_site2041] | 9.09 ± 0.46
26 | TACGCTCCCAGACACACACACACACCGATATAATAT [CACACA_site8098] | 9.89 ± 0.23
27 | ATTTATTGACTATTTACACACATATTTATTAAAATA [CACACA_site4980] | 8.88 ± 0.28
28 | TATTATATTATGTGATGTACATATTTATATAGGCCC [XGTACX_site4746] | 8.72 ± 0.47
29 | TATTACATACCTTATTGTACAAATTATATATTAAAG [XGTACX_site7334] | 8.61 ± 0.36
30 | TAATTTTTTTTTAATTGTACATGTGAATATATTTCA [XGTACX_site4115] | 8.52 ± 0.42
31 | GTTTACATTTTAAGAAGTACAAAATTTATGGTTAAA [XGTACX_site450] | 8.47 ± 0.42
32 | TATATATATATATGTAGTACTCAATATTGTAGATTA [XGTACX_site3856] | 9.265 ± 0.064
33 | AAATATATGTATATATGTACATATGTGTGCTATCAT [XGTACX_site1604] | 9.15 ± 0.42
34 | AAACAATTGAATAAATGTACAGATACATTTTTTTAA [XGTACX_site5386] | 8.59 ± 0.38
35 | TATTTATCTATTTTGTTATATAATAAAATAAAATAA [CACACA_negctrl_site281] | 8.01 ± 0.44
36 | AAAAATAAACAAAATTGTACACATTACATACATATA [XGTACX_site966] | 8.85 ± 0.43
37 | ATACATACAAAAATTTGTACATATTTCCAATAATGT [XGTACX_site2658] | 8.73 ± 0.4
38 | GAAAAAACGAAAAAAATACACACCTGAAAAGATATG [CACACA_site887] | 9.12 ± 0.42
39 | GCCATAATATGACATACACACACAAAAAAAAAAAAA [CACACA_site8353] | 9.36 ± 0.61
40 | AAATTTCCATTTGGGTGTACATGTGAAACTACAAAG [XGTACX_site208] | 8.69 ± 0.48
41 | TTTTTATTTATATGATACTTATATATATATATATAT [CACACA_negctrl_site462] | 9.01 ± 0.4
42 | TCTTTTAAAAAAATTTGTACATATTTTTTGTATTAT [XGTACX_site67] | 8.68 ± 0.51
43 | TTCTTAATATTGCATGCACACTATATAATAATTGAA [CACACA_site4720] | 9.05 ± 0.3
44 | TTTTCCCTCTTATTCACACAAAAAAAATAAAATAAA [CACACA_site4656] | 8.2 ± 0.42
45 | ACACTAACATCATATCGTACATTTGTTAATTTATAA [XGTACX_site8654] | 8.74 ± 0.36
46 | TATTTATTTTTTTTTGTGCACTTAATATAATCTTAC | 8.82 ± 0.58

Row | Sequence | gcPBM binding intensity (ln)
47 | TATTTGAAAACATAGGTGCACATTATTTTATAATCT [GTGCAC_site9947] | 8.8 ± 0.55
48 | GAAAGAATAAAATTTACACACATATAAATATACATA [CACACA_site7125] | 8.96 ± 0.47
49 | TTTATTCTTGAGTATTGTACATATGTGTTTGTATAT [XGTACX_site5706] | 8.93 ± 0.45
50 | AAAGGTGTCATATATGCACACAAAAGTAACACGCAC [CACACA_site8051] | 9.39 ± 0.32
51 | AGGAGGATGCATATGGCACACATTATGAAACTGTCG [CACACA_site299] | 9.16 ± 0.51
52 | TTTTTTTTTGAATACAGTACACAAGTGTTAAGTTTA [XGTACX_site7069] | 8.45 ± 0.38
53 | TGTTCTTTGTTCAGCGCATGTAAAATAAAATAAAAT [TGCATGCA_site629] | 8.6 ± 0.26
54 | GATTGATTATATGTGTGTACTTATATGTTAAAAAAA [XGTACX_site4784] | 8.83 ± 0.42
55 | TATGAATATCTATACACACACATATATATACCCACT [CACACA_site4963] | 9.62 ± 0.17
56 | TAAAGAATAATACATTCACACAATATTATAAAAATA [CACACA_site5986] | 8.63 ± 0.47
57 | GAAATGTCATATAATAGTACACACATGAAAATATAA [XGTACX_site6838] | 9.14 ± 0.47
58 | TATGATTAATTACCACAATTGACAAAAAAAAAAAAA [CACACA_negctrl_site336] | 8.52 ± 0.36
59 | TTGTATGAATTTATTTTTATTGATAATTAATATGTA [TGCATGCA_negctrl_site143] | 8.43 ± 0.4
60 | TATAAGTATTAATACACACACAAAATAATAAAAAAA [CACACA_site3481] | 9.33 ± 0.34
61 | AAAAATAAAGGATATACACACTAATTCTATAAATAT [CACACA_site7344] | 8.93 ± 0.33
62 | GTCTCGATAATGAAAAGTACAAAATAAAAATAATAA [XGTACX_site6471] | 8.77 ± 0.52
63 | TTGTTCTATATATATGCATGCACGTATGTTAAATTA [TGCATGCA_site659] | 9.22 ± 0.24
64 | TCTCATATATTGAATTGTACATATGTTAAAATATAG [XGTACX_site6764] | 8.5 ± 0.27
65 | TATTAATTTTTATACGCATGTGTATAGTAATATATA [TGCATGCA_site1010] | 8.66 ± 0.37
66 | ATACAAAAGGGGAATACACACACATATATATATATA [CACACA_site8694] | 10.12 ± 0.021
67 | AATAAACATAGATGTACACACATATACAGATATATA [CACACA_site5570] | 9.26 ± 0.45
68 | TTAATATATTTTAAAAGTACATAATATTATTTTTTA [XGTACX_site3642] | 8.09 ± 0.45
69 | AAGAAAAGAACAAGAGCATGCACTTAATAAGAATAA [TGCATGCA_site818] | 9.06 ± 0.42

Row | Sequence | gcPBM binding intensity (ln)
70 | TATAGTTTTGAAAACAAACACACAAAAAAAAAAAAA [CACACA_site1691] | 8.63 ± 0.53
71 | AAGAGGTTAATGAAATGTACACATATATATATATAT [XGTACX_site1861] | 9.79 ± 0.49
72 | TTTTATAAATATTATACATGCATAATGATAAAAAAA [TGCATGCA_site927] | 8.46 ± 0.44
73 | ATAATTTCACAAATAGTGCAAAAATTAGTAAGAATA [GTGCAC_site9648] | 8.73 ± 0.53
74 | TTTTTTTTCTATGTGGTGCACATTATTTTTTTTTTT | 8.81 ± 0.5
75 | TATGTAACCTGTTTTACACACCCCCACCCCCCTCTT [CACACA_site319] | 10.09 ± 0.05
76 | TTTAAATACAGACATACACACATACACAGACATATA [CACACA_site4460] | 9.43 ± 0.25
77 | AAAAAAAACAGACACACACACATACAAAATATATAT [CACACA_site1449] | 9.79 ± 0.3
78 | CTCTATTGTTAAAAGGTGCTTTTATGATTTTATATA [GTGCAC_site9409] | 8.57 ± 0.54
79 | AAAATTTATGGAAGGTGTACTGTTAATTATGTATAT [XGTACX_site6446] | 8.74 ± 0.36
80 | ATATTAAAGATATATACACACATATTTATAAATATA [CACACA_site7127] | 8.8 ± 0.42
81 | GAAGACAATTATATGTGTACATATATATACATATAT [XGTACX_site4630] | 8.95 ± 0.37
82 | GGAATTCATATTAATTGTACATTTAAAGATAGATGA [XGTACX_site3279] | 8.6 ± 0.53
83 | AGTAGATATTATTATAGTACTTTTTATTTTATATTT [XGTACX_site1551] | 8.7 ± 0.42
84 | ATATTTTACATATTTGCACACATATATTTATATACA [CACACA_site855] | 9.38 ± 0.33
85 | ATATATATATATATATGTACTTATTTATTTATTTAT [XGTACX_site4645] | 9.63 ± 0.16
86 | TAATATGTGGACTTTACACACTTGTTTTAAAATTCT [CACACA_site4605] | 8.77 ± 0.49
87 | TGTATACATTATTAAGTGCAAGTAGGGAAAAAAAAA | 8.72 ± 0.47
88 | GATGATACGATTATCACACATTTATACTTTCTACAT [CACACA_site5669] | 9.01 ± 0.49
89 | ATATAAAAATAATAGAGTACAAAAAAAAAATGTATA [XGTACX_site7054] | 8.79 ± 0.54
90 | TTTATTTATCTTTACGCACACACTTGCATGTACAAA [CACACA_site1118] | 9.52 ± 0.44
